From PubChem BioAssay AID1468 (National Center for Advancing Translational Sciences (NCATS), 2008)
Where “and” joins values, the source holds several entries; their conditions need not be identical. Identical values can stand only once. Screen size: about 280,000 compounds; about 1,100 (0.39%) were called active. The inconclusive results got no clear call from the source; some entries with a clear call stand among them for comparison. Calls come from the whole dose curve; as a rule, active = well fitted inhibition curve with a large enough effect; inconclusive = small, poorly fitted or top-dose-only effect, or effect the other way; inactive = flat fitted curve, though single readings scatter. Where the call is inconclusive, the potency comes from a doubtful curve fit.

target: Microtubule-associated protein tau (Homo sapiens) (UniProt P10636); test: qHTS for Inhibitors of Tau Fibril Formation, Fluorescence Polarization; conditions: K18 P301L tau heparin fibrillization, Alexa594 FP, 6 h; series mostly up to 57.7 µM; activity, negative = inhibition: at the top concentration; note: nearly all actives have a fitted effect of over 55% in size
In short: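 Recombinant K18 P301L […], labeled with Alexa 594 at 0.24 uM over 15 uM unlabeled; heparin inducer 20 uM final; 37 C, 6 hr; FP endpoint.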
% is set by controls: 0 for no effect and ±100 for the full control effect; potency is the fitted concentration of half-maximal effect; tags give direction and shape of the fitted curve.

UniProt P10636, sequence (P10636 whole entry, looked up): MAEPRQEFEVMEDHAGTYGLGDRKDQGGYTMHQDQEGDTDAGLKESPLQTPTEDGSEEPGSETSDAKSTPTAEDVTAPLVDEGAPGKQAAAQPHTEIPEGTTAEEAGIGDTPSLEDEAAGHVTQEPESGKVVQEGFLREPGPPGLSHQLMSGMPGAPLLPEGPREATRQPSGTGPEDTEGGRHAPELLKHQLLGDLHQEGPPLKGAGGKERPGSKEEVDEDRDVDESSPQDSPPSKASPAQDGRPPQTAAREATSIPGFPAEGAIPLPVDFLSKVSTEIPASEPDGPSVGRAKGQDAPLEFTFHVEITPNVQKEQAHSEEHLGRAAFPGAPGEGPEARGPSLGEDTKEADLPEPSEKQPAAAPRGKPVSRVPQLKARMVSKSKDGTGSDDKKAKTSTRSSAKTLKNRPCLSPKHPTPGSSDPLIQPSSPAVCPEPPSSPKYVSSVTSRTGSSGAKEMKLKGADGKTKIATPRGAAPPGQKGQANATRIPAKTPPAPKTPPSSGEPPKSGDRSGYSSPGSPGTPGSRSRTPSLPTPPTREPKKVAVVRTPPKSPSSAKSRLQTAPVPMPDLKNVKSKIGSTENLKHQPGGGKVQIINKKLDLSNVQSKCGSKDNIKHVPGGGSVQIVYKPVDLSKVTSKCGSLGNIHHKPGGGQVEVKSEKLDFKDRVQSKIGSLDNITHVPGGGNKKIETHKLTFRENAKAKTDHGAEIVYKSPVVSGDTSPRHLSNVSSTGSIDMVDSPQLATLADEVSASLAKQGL

Row | SMILES | activity, negative = inhibition | Potency
1 | COC(=O)NC(c1ccccc1)c1c[nH]c2ccc(OC)cc12 (stereo not given) | inactive: 3.99% | 
2 | Cc1ccc(C(=O)NC(NC(=S)Nc2ccc(S(N)(=O)=O)cc2)C(Cl)(Cl)Cl)cc1 (stereo not given) |  | inconclusive: 39.8 µM [inhibitor, single point]
3 | Cc1ccc(C)c(Nc2nc3nonc3nc2Nc2cccc(C)c2C)c1 |  | inconclusive: 15.8 µM [inhibitor, partial curve]
4 | CCN(CC)c1cc(C)c2cc(NC(=O)c3ccc(Br)o3)ccc2n1 |  | inconclusive: 31.6 µM [activator, single point]
5 | Cc1ccc(NC(=S)NNC(=S)Nc2cccc(C(F)(F)F)c2)cc1 |  | inconclusive: 39.8 µM [inhibitor, single point]
6 | CCc1ccccc1OCCSc1nnc(-c2cc(OC)c(OC)c(OC)c2)o1 |  | inconclusive: 12.6 µM [inhibitor, partial curve, poor fit]
7 | COc1cc2nc(Nc3ccc(F)cc3)nc(N)c2cc1OC |  | inconclusive: 6.31 µM [activator, partial curve]
8 | CC(=O)N1c2ccc(Cl)cc2C2C=CCC2C1c1cccc2ccccc12 (stereo not given) | inactive: -12.2% | 
9 | Cc1ccc2c(c1)C(=C(C#N)C#N)C(=O)N2CCN1CCOCC1 |  | inconclusive: 25.1 µM [inhibitor, partial curve]
10 | Cc1sc2ccc3sccc3c2[n+]1C |  | inconclusive: 25.1 µM [inhibitor, partial curve]
11 | O=C(Cn1ncc2c([nH]c3ccccc32)c1=O)NCc1cccc(Cl)c1 |  | inconclusive: 8.91 µM [inhibitor, partial curve]
12 | COc1ccc(NC(=O)C(C)n2c(C)c3cnn(-c4ccccc4)c(=O)c3c2C)cc1Cl (stereo not given) | inactive: 6.26% | 
13 | Cc1cc(=O)oc2cc(OCC(=O)OCC(=O)Nc3ccccc3C(C)C)ccc12 |  | inconclusive: 8.91 µM [inhibitor, single point]
14 | O=C1c2ccccc2NC(c2ccc(-c3ccc(Br)cc3)o2)N1O (stereo not given) | inactive: -0.0288% | 
15 | CCOc1ccc(NC(=O)NCCn2nnc3cc(S(=O)(=O)N(C)C)ccc32)cc1 | inactive: 11.7% | 
16 | O=C1CC(c2ccco2)CC2=C1C1c3ccccc3C(=O)N1c1ccccc1N2 (stereo not given) | inactive: -9.97% | 
17 | CC(=O)Nc1ccc(S(=O)(=O)N2CCN(c3nnnn3-c3ccccc3)CC2)cc1 | inactive: -8.71% | 
18 | O=C(O)C1=CC(=C(c2ccc(O)c(C(=O)O)c2)c2ccc(O)c(C(=O)O)c2)C=CC1=O |  | inconclusive: 35.5 µM [inhibitor, partial curve, poor fit] and inconclusive: 39.8 µM [inhibitor, single point]
19 | CC(C)C(NC(=O)C12CC3CC(CC(C3)C1)C2)C(=O)NC1=NCCS1 (stereo not given) | inactive: -4.96% | 
20 | COC(=O)C1=C(C(=O)OC)C(c2ccc(OC)c(OC)c2)c2sc(=O)[nH]c2S1 (stereo not given) | inactive: -9.03% | 
21 | CCn1c(=S)sc2c(=O)n(-c3ccccc3)c(=S)[nH]c21 |  | inconclusive: 15.8 µM [inhibitor, partial curve]
22 | CC(c1cccs1)N(Cc1ccco1)C(=S)Nc1ccc(F)c(Cl)c1 (stereo not given) |  | inconclusive: 15.8 µM [inhibitor, partial curve]
23 | Cc1ccc(OCC(O)C(C)NC(C)C)c2c1CCC2 (stereo not given) |  | inactive
24 | CC(C)Oc1cccc(C(=O)NC(=S)Nc2cccnc2)c1 | inactive: -2.01% | 

Row | SMILES | activity, negative = inhibition | Potency
25 | CSc1ccc(/C=N\NC(=O)COc2ccc(Cl)cc2Br)cc1 |  | inconclusive: 12.6 µM [inhibitor, partial curve, poor fit]
26 | CCN1CCN(c2cc(C(C)(C)C)nc3c(-c4ccccc4)c(C)nn23)CC1 |  | inconclusive: 0.0891 µM [inhibitor, full curve, poor fit]
27 | CCOc1ccc(NC(=O)Nc2cc(-c3ccccc3)sc2C(=O)OC)cc1 | inactive: 9.56% | 
28 | CCOc1ccc(NC(=O)Cn2c(=O)n(Cc3ccc(C(=O)NCc4ccc(C)cc4)cc3)c(=O)c3ccccc32)cc1 |  | inconclusive: 31.6 µM [inhibitor, partial curve]
29 | CCc1nnc(NC(=O)CSc2nccn2-c2cccc(C)c2C)s1 |  | inconclusive: 20 µM [inhibitor, single point]
30 | CN(C)c1ccc(NC(=O)CN2CCN(CC(=O)Nc3ccc(Br)cc3)CC2)cc1 |  | inconclusive: 44.7 µM [activator, single point]
31 | Cc1c(C(=O)Nc2ccc(F)cc2)oc2ccc(S(=O)(=O)N3CCC4(CC3)OCCO4)cc12 |  | inconclusive: 22.4 µM [inhibitor, partial curve, poor fit]
32 | CCOC(=O)CNC(=O)CSc1nc(-c2ccc(OC)cc2)ns1 | inactive: -1.45% | 
33 | CCCCSC1=N/C(=C/c2ccsc2)C(=O)N1c1ccccc1 | inactive: -10.3% | 
34 | Cc1ccc(CNC(=O)c2cc3c(s2)-c2ccc(Cl)cc2SC3)cc1 |  | inconclusive: 35.5 µM [inhibitor, partial curve]
35 | CCOc1cc2c(cc1OCC)C(c1ccccc1OC)OC(=O)C2 (stereo not given) | inactive: 5.01% | 
36 | Cc1ccc(-c2nc3ncccc3o2)cc1NC(=O)c1ccccc1Br |  | inconclusive: 3.16 µM [inhibitor, single point]
37 | COCCCn1c(CCC(=O)O)ccc1-c1cccs1 | inactive: -6.55% | 
38 | Oc1cccc(/C=N/c2c(-c3ccco3)nc3ccccn23)c1 |  | inconclusive: 31.6 µM [inhibitor, single point]
39 | O=C(CCCn1ccc2cc(S(=O)(=O)N3CCCC3)ccc21)NCc1ccc(Cl)cc1 |  | inconclusive: 22.4 µM [activator, single point]
40 | CCOC(=O)c1nn(C23CC4CC(CC(C4)C2)C3)c2c1C(=O)N(c1ccc(C)cc1)C2=O | inactive: -4.4% | 
41 | O=C(NCCc1ccc(Cl)cc1)c1ccc2c(c1)N(Cc1ccccc1F)C(=O)c1ccccc1S2(=O)=O |  | inconclusive: 20 µM [inhibitor, partial curve]
42 | COc1ccc(Nc2nc(-c3sc(N)nc3C)cs2)cc1 |  | inconclusive: 44.7 µM [inhibitor, single point]
43 | Cc1cc(C)c(/C=C/c2onc(C)c2S(=O)(=O)N2CCC(C(=O)Nc3ccc(Cl)cc3C)CC2)c(C)c1 |  | inconclusive: 39.8 µM [inhibitor, single point]
44 | CCN(CC)CCNC(=O)c1ccc(NC(=O)c2ccc(Cl)c(S(=O)(=O)Nc3ccccc3OC)c2)cc1 | inactive: -3.06% | 
45 | CCCCCCCCCCCCCCCC(=O)N[C@@H](COP(=O)(O)O)C(=O)O |  | inactive
46 | COc1ccc(-c2c3c(nc4sc(C(=O)Nc5cc(C)on5)c(N)c24)CCC3)cc1 | inactive: 3.93% | 
47 | O=C(NCCc1nc2ccccc2[nH]1)/C(=C/c1ccc2c(c1)OCO2)NC(=O)c1ccccc1Cl |  | inconclusive: 25.1 µM [activator, partial curve]
48 | Nc1cccn2c(-c3ccc(Cl)cc3)cnc12 | inactive: 2.09% | 

Row | SMILES | activity, negative = inhibition | Potency
49 | CCn1c2ccccc2c2cc(/C=N/NC(=O)c3ccc(O)cc3)ccc21 |  | inconclusive: 28.2 µM [inhibitor, partial curve]
50 | Cc1ccccc1NC(=O)c1c(NC(=O)C(F)(F)F)sc2c1CCCCC2 |  | inconclusive: 20 µM [inhibitor, partial curve, poor fit]
51 | O=C(Cn1c(=O)n(CCc2ccccc2)c(=O)c2c3c(sc21)CCCC3)Nc1ccc(F)c(F)c1 |  | inconclusive: 17.8 µM [inhibitor, partial curve]
52 | CCCc1nnc(NC(=O)Cc2coc3ccc(C)cc23)s1 | inactive: -4.55% | 
53 | CCOc1ccccc1Nc1sc(C(=O)c2ccc(Cl)cc2)c(N)c1C(=O)NCCc1ccccc1 | inactive: -10.3% | 
54 | CN(C)c1ccc2c3c(ccc(N(C)C)c13)COC2 |  | inconclusive: 31.6 µM [inhibitor, single point]
55 | O=C(CO/N=C/c1cccc([N+](=O)[O-])c1)NC1CCCCC1 | inactive: -2.58% | 
56 | COC(=O)/C=c1/sc2nc3ccccc3n2c1=O |  | inconclusive: 10 µM [inhibitor, partial curve, poor fit]
57 | COc1ccc(NC(=O)CSc2nc3c(c(=O)[nH]2)CCC3)cc1 |  | inconclusive: 8.91 µM [inhibitor, single point]
58 | Cc1nc(CCNC(=O)Cc2ccccc2)cs1 |  | inconclusive: 7.94 µM [inhibitor, single point]
59 | CC(C)c1ccccc1Oc1c(C(F)(F)F)oc2c(CN3CCN(C)CC3)c(O)ccc2c1=O | inactive: -8.2% | 
60 | CCOc1ccc(-c2nc(CNC(=O)Nc3ccccc3)c(C)o2)cc1 | inactive: -9.02% | 
61 | COc1ccc(NCc2cc3ccc(OC)cc3n(CC(=O)Nc3cccc(OC)c3)c2=O)cc1 |  | inconclusive: 2.51 µM [activator, partial curve, poor fit]
62 | COC(=O)c1cc(C)cc(=O)o1 |  | inconclusive: 31.6 µM [inhibitor, single point]
63 | Cc1ccc(-n2nc(C(=O)Nc3cccc(C#N)c3)c3c4ccccc4n(C)c3c2=O)cc1 |  | inconclusive: 31.6 µM [inhibitor, single point]
64 | O=C(O)c1ccccc1Nc1ccnc(Cl)n1 | inactive: 1.69% | 
65 | Cc1cc2n(n1)CCC(=O)N2Cc1ccc(C(=O)Nc2ccc(Br)c(C)c2)cc1 |  | inconclusive: 15.8 µM [inhibitor, partial curve]
66 | CCOc1ccc(NC(=O)[C@H](Cc2ccccc2)N2Cc3ccccc3C2=O)cc1 |  | inconclusive: 14.1 µM [inhibitor, partial curve]
67 | COc1cccc(CC(=O)NCC2(N3CCCCC3)CCCCC2)c1 |  | inconclusive: 17.8 µM [activator, single point]
68 | O=C(Nc1ccn(Cc2ccccc2F)n1)c1ccc(COc2ccc(Br)cc2)cc1 | inactive: 5.5% | 
69 | COc1ccc(NC(=O)C(=O)NCC(c2cccnc2)N2CCc3ccccc3C2)cc1 (stereo not given) |  | inconclusive: 8.91 µM [inhibitor, single point]
70 | NS(=O)(=O)c1ccc(CCNC(=S)Nc2ccc(S(N)(=O)=O)cc2)cc1 |  | inconclusive: 22.4 µM [inhibitor, single point]
